# Laboratory results as given in paper PMC12820563.
# The other results are listed elsewhere or left out. The list includes weakly bound sequences.
# Target: T1, MBP-FoxP3dN (UniProt Q99JB6)
# T1 sequence: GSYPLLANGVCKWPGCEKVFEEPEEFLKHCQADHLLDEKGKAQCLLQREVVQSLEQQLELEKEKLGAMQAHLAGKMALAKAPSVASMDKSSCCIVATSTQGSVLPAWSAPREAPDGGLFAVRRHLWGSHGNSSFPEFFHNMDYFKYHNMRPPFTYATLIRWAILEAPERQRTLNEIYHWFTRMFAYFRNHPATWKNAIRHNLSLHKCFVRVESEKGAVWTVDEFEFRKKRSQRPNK
# Test: PD-seq (MBP pull-down with sequencing)
# Conditions: 20 mM Tris-HCl pH 7.5, 100 mM NaCl, 1.5 mM MgCl2, 0.4 uM protein, 0.1 uM dsDNA library, 30 min, room temperature, amylose pull-down; high values mean tight binding; double strand, one strand shown
row,Sequence,binding signal (RPM ratio (pull-down/input))
1,GATGATTGTTCTCCCAGCTGATGAATTCTTCTCCTCGAGTAAACAAATTTTCCTAATCTTTCTGTTCAAGCGCCATCTAC,0.188
2,GATGATTGTTCTCCCAGCTGATGAATTAACCCCTTCGAGTAAACAAATTTTCCTAATCTTTCTGTTCAAGCGCCATCTAC,0.281
3,GATGATTGTTCTCCCAGCTGATGAATTCCGGAGGTCGAGTAAACAAATTTTCCTAATCTTTCTGTTCAAGCGCCATCTAC,0.21
4,GATGATTGTTCTCCCAGCTGATGAATTTCATCAGTCGAGTAAACAAATTTTCCTAATCTTTCTGTTCAAGCGCCATCTAC,0.309
5,GATGATTGTTCTCCCAGCTGATGAATTTTGCAGTTCGAGTAAACAAATTTTCCTAATCTTTCTGTTCAAGCGCCATCTAC,2.37
6,GATGATTGTTCTCCCAGCTGATGAATTTCAACTCTCGAGTAAACAAATTTTCCTAATCTTTCTGTTCAAGCGCCATCTAC,0.601
7,GATGATTGTTCTCCCAGCTGATGAATTAAACCCATCGAGTAAACAAATTTTCCTAATCTTTCTGTTCAAGCGCCATCTAC,0.304
8,GATGATTGTTCTCCCAGCTGATGAATTCGGGCAATCGAGTAAACAAATTTTCCTAATCTTTCTGTTCAAGCGCCATCTAC,1.73
9,GATGATTGTTCTCCCAGCTGATGAATTTGTTAATTCGAGTAAACAAATTTTCCTAATCTTTCTGTTCAAGCGCCATCTAC,4.08
10,GATGATTGTTCTCCCAGCTGATGAATTCGACATCTCGAGTAAACAAATTTTCCTAATCTTTCTGTTCAAGCGCCATCTAC,0.959
11,GATGATTGTTCTCCCAGCTGATGAATTGTGTCGCTCGAGTAAACAAATTTTCCTAATCTTTCTGTTCAAGCGCCATCTAC,1.47
12,GATGATTGTTCTCCCAGCTGATGAATTCTGGAGATCGAGTAAACAAATTTTCCTAATCTTTCTGTTCAAGCGCCATCTAC,0.215
13,GATGATTGTTCTCCCAGCTGATGAATTATGTCGATCGAGTAAACAAATTTTCCTAATCTTTCTGTTCAAGCGCCATCTAC,0.68
14,GATGATTGTTCTCCCAGCTGATGAATTTCTCCGCTCGAGTAAACAAATTTTCCTAATCTTTCTGTTCAAGCGCCATCTAC,0.201
15,GATGATTGTTCTCCCAGCTGATGAATTTGTTCGTTCGAGTAAACAAATTTTCCTAATCTTTCTGTTCAAGCGCCATCTAC,4.06
16,GATGATTGTTCTCCCAGCTGATGAATTCCACTTTTCGAGTAAACAAATTTTCCTAATCTTTCTGTTCAAGCGCCATCTAC,0.379
17,GATGATTGTTCTCCCAGCTGATGAATTGGATTAATCGAGTAAACAAATTTTCCTAATCTTTCTGTTCAAGCGCCATCTAC,0.271
18,GATGATTGTTCTCCCAGCTGATGAATTCCAATCATCGAGTAAACAAATTTTCCTAATCTTTCTGTTCAAGCGCCATCTAC,0.611
19,GATGATTGTTCTCCCAGCTGATGAATTGACAATGTCGAGTAAACAAATTTTCCTAATCTTTCTGTTCAAGCGCCATCTAC,0.506
20,GATGATTGTTCTCCCAGCTGATGAATTCATACTTTCGAGTAAACAAATTTTCCTAATCTTTCTGTTCAAGCGCCATCTAC,0.388
21,GATGATTGTTCTCCCAGCTGATGAATTGTATAGGTCGAGTAAACAAATTTTCCTAATCTTTCTGTTCAAGCGCCATCTAC,1.08

row,Sequence,binding signal (RPM ratio (pull-down/input))
1,GATGATTGTTCTCCCAGCTGATGAATTTATGACGTCGAGTAAACAAATTTTCCTAATCTTTCTGTTCAAGCGCCATCTAC,0.647
2,GATGATTGTTCTCCCAGCTGATGAATTAGCTGTATCGAGTAAACAAATTTTCCTAATCTTTCTGTTCAAGCGCCATCTAC,1.24
3,GATGATTGTTCTCCCAGCTGATGAATTATTATAGTCGAGTAAACAAATTTTCCTAATCTTTCTGTTCAAGCGCCATCTAC,0.458
4,GATGATTGTTCTCCCAGCTGATGAATTTCTCGAATCGAGTAAACAAATTTTCCTAATCTTTCTGTTCAAGCGCCATCTAC,0.211
5,GATGATTGTTCTCCCAGCTGATGAATTAGGCGTCTCGAGTAAACAAATTTTCCTAATCTTTCTGTTCAAGCGCCATCTAC,3.39
6,GATGATTGTTCTCCCAGCTGATGAATTTTGGTGCTCGAGTAAACAAATTTTCCTAATCTTTCTGTTCAAGCGCCATCTAC,0.668
7,GATGATTGTTCTCCCAGCTGATGAATTGCGGGTGTCGAGTAAACAAATTTTCCTAATCTTTCTGTTCAAGCGCCATCTAC,1.31
8,GATGATTGTTCTCCCAGCTGATGAATTTCATTTCTCGAGTAAACAAATTTTCCTAATCTTTCTGTTCAAGCGCCATCTAC,0.8
9,GATGATTGTTCTCCCAGCTGATGAATTCAAGCTTTCGAGTAAACAAATTTTCCTAATCTTTCTGTTCAAGCGCCATCTAC,0.728
10,GATGATTGTTCTCCCAGCTGATGAATTCATAGGTTCGAGTAAACAAATTTTCCTAATCTTTCTGTTCAAGCGCCATCTAC,0.419
11,GATGATTGTTCTCCCAGCTGATGAATTGTACCCTTCGAGTAAACAAATTTTCCTAATCTTTCTGTTCAAGCGCCATCTAC,0.44
12,GATGATTGTTCTCCCAGCTGATGAATTCGTGCGCTCGAGTAAACAAATTTTCCTAATCTTTCTGTTCAAGCGCCATCTAC,0.634
13,GATGATTGTTCTCCCAGCTGATGAATTACTTGATTCGAGTAAACAAATTTTCCTAATCTTTCTGTTCAAGCGCCATCTAC,0.378
14,GATGATTGTTCTCCCAGCTGATGAATTGCGCGACTCGAGTAAACAAATTTTCCTAATCTTTCTGTTCAAGCGCCATCTAC,2.46
15,GATGATTGTTCTCCCAGCTGATGAATTTTGTGGTTCGAGTAAACAAATTTTCCTAATCTTTCTGTTCAAGCGCCATCTAC,4.43
16,GATGATTGTTCTCCCAGCTGATGAATTCGAATCCTCGAGTAAACAAATTTTCCTAATCTTTCTGTTCAAGCGCCATCTAC,0.471
17,GATGATTGTTCTCCCAGCTGATGAATTCGACGGATCGAGTAAACAAATTTTCCTAATCTTTCTGTTCAAGCGCCATCTAC,0.269
18,GATGATTGTTCTCCCAGCTGATGAATTCGGTGTCTCGAGTAAACAAATTTTCCTAATCTTTCTGTTCAAGCGCCATCTAC,1.86
19,GATGATTGTTCTCCCAGCTGATGAATTTCAGTTGTCGAGTAAACAAATTTTCCTAATCTTTCTGTTCAAGCGCCATCTAC,1.19
20,GATGATTGTTCTCCCAGCTGATGAATTGGGAAATTCGAGTAAACAAATTTTCCTAATCTTTCTGTTCAAGCGCCATCTAC,0.588
21,GATGATTGTTCTCCCAGCTGATGAATTATTTGGCTCGAGTAAACAAATTTTCCTAATCTTTCTGTTCAAGCGCCATCTAC,0.865

row,Sequence,binding signal (RPM ratio (pull-down/input))
1,GATGATTGTTCTCCCAGCTGATGAATTGTAGGACTCGAGTAAACAAATTTTCCTAATCTTTCTGTTCAAGCGCCATCTAC,0.369
2,GATGATTGTTCTCCCAGCTGATGAATTTCCCCCATCGAGTAAACAAATTTTCCTAATCTTTCTGTTCAAGCGCCATCTAC,0.254
3,GATGATTGTTCTCCCAGCTGATGAATTAAGAGCGTCGAGTAAACAAATTTTCCTAATCTTTCTGTTCAAGCGCCATCTAC,0.433
4,GATGATTGTTCTCCCAGCTGATGAATTCATACGTTCGAGTAAACAAATTTTCCTAATCTTTCTGTTCAAGCGCCATCTAC,0.51
5,GATGATTGTTCTCCCAGCTGATGAATTCCAGCAATCGAGTAAACAAATTTTCCTAATCTTTCTGTTCAAGCGCCATCTAC,1.63
6,GATGATTGTTCTCCCAGCTGATGAATTACACCACTCGAGTAAACAAATTTTCCTAATCTTTCTGTTCAAGCGCCATCTAC,0.69
7,GATGATTGTTCTCCCAGCTGATGAATTCGCGGTCTCGAGTAAACAAATTTTCCTAATCTTTCTGTTCAAGCGCCATCTAC,0.492
8,GATGATTGTTCTCCCAGCTGATGAATTGGCATAATCGAGTAAACAAATTTTCCTAATCTTTCTGTTCAAGCGCCATCTAC,0.597
9,GATGATTGTTCTCCCAGCTGATGAATTTCCTCCCTCGAGTAAACAAATTTTCCTAATCTTTCTGTTCAAGCGCCATCTAC,0.223
10,GATGATTGTTCTCCCAGCTGATGAATTGAAAGGATCGAGTAAACAAATTTTCCTAATCTTTCTGTTCAAGCGCCATCTAC,0.183
11,GATGATTGTTCTCCCAGCTGATGAATTCTAGGAATCGAGTAAACAAATTTTCCTAATCTTTCTGTTCAAGCGCCATCTAC,0.18
12,GATGATTGTTCTCCCAGCTGATGAATTTTTACGCTCGAGTAAACAAATTTTCCTAATCTTTCTGTTCAAGCGCCATCTAC,0.259
13,GATGATTGTTCTCCCAGCTGATGAATTTTGGGCATCGAGTAAACAAATTTTCCTAATCTTTCTGTTCAAGCGCCATCTAC,0.782
14,GATGATTGTTCTCCCAGCTGATGAATTCCCGCATTCGAGTAAACAAATTTTCCTAATCTTTCTGTTCAAGCGCCATCTAC,5.9
15,GATGATTGTTCTCCCAGCTGATGAATTAACATTGTCGAGTAAACAAATTTTCCTAATCTTTCTGTTCAAGCGCCATCTAC,0.588
16,GATGATTGTTCTCCCAGCTGATGAATTGCAACATTCGAGTAAACAAATTTTCCTAATCTTTCTGTTCAAGCGCCATCTAC,4.94
17,GATGATTGTTCTCCCAGCTGATGAATTAATGCCCTCGAGTAAACAAATTTTCCTAATCTTTCTGTTCAAGCGCCATCTAC,1.29
18,GATGATTGTTCTCCCAGCTGATGAATTTGGCCTTTCGAGTAAACAAATTTTCCTAATCTTTCTGTTCAAGCGCCATCTAC,4.54
19,GATGATTGTTCTCCCAGCTGATGAATTCATAGAGTCGAGTAAACAAATTTTCCTAATCTTTCTGTTCAAGCGCCATCTAC,0.307
20,GATGATTGTTCTCCCAGCTGATGAATTATCCAAATCGAGTAAACAAATTTTCCTAATCTTTCTGTTCAAGCGCCATCTAC,0.222
21,GATGATTGTTCTCCCAGCTGATGAATTGGGGTTCTCGAGTAAACAAATTTTCCTAATCTTTCTGTTCAAGCGCCATCTAC,0.782
